Reference: patent US10695350B2, “Methods of treating and preventing graft versus host disease” (priority 2013, dated 2020)

Key:
[1] = test system: Primary CD4+ T-cells from patients with active cGVHD; experiment: CD4+ T-cell activation (CD69) in cells from patients with active cGVHD; settings: 1 μM ibrutinib pretreatment vs DMSO; anti-CD3 6 hours
[2] = test system: B-cell receptor pathway (pERK1/2, pBTK, pPLCγ2); experiment: Immunoblot of B-cell receptor pathway activation in anti-IgM stimulated B-cells from cGVHD patients; settings: 1 μM ibrutinib pretreatment; anti-IgM 45 minutes
[3] = test system: patients with steroid-dependent/refractory cGVHD; settings: 420 mg daily; planned study
Healthy donor Th17 cells = experiment: IL17 intracellular cytokine staining of TCR-stimulated Th17 cells; settings: 30 minute pretreatment with 1 μM ibrutinib; 12 hours stimulation
[4] = test system: CD4+CD25hiCD127dim CD49d-FoxP3+ Tregs; experiment: in vitro T-cell suppression assay (CFSE division index of CD8+ responder cells); settings: Tregs pretreated with 1 μM ibrutinib; 6 days

C=CC(=O)N1CCC[C@@H](n2nc(-c3ccc(Oc4ccccc4)cc3)c3c(N)ncnc32)C1 [ibrutinib, (R)-1-(3-(4-amino-3-(4-phenoxyphenyl)-1H-pyrazolo[3,4-d]pyrimidin-1-yl)piperidin-1-yl)prop-2-en-1-one]
population of CD69+ CD4+ T-cells [1]: significant decrease
B-cell receptor pathway activation (phospho-specific antibodies) [2]: effective in inhibiting
expected response at 12 weeks compared with the historical response rate of 30% [3]: will improve response
TCR-induced activation of Th17 cells (percentage of IL17 secreting CD4+ T-cells) (Healthy donor Th17 cells): limited the TCR-induced activation of Th17 cells
suppressive function of human Tregs [4]: maintained
